Hit rate of the full screen: of about 48,000 compounds, about 120 (0.25%) were called active. Not shown: some 4% with an inconclusive outcome. Calls come from the whole dose curve; as a rule, active = well fitted activation curve with a large enough effect; inconclusive = small, poorly fitted or top-dose-only effect, or another doubt; inactive = no such curve, though single readings can be large or run the other way. This is one part of the list.
assay: Primary qHTS for Identification of Small Molecule Activators of Huntingtin-Antisense Promoter Activity; settings: HEK293 HTT-AS promoter firefly luciferase reporter, 24 h; series mostly up to 57.5 µM; activity change, positive = activation: at the top concentration; note: nearly all actives have a fitted effect of over 55% in size
Procedure, shortened: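 HEK293 Fluc reporter, 2,500 cells/well, 24 h pre-culture; cpds up to 57.5 uM final, 24 h 37 degrees C; Dual-Glo, 10 min RT; normalized vehicle = 0%, zero RLU = -100%.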

Activity change, positive = activation, inactive:
CCOC(=O)c1cc(-c2ccccc2)n(-c2cccc(C(=O)N(CC)c3ccccc3)c2)c1C -28.5%, Cc1c2cnn(-c3ccccc3)c(=O)c2c(C)n1C(C)C(=O)Nc1ccc(Br)cc1F (configuration not stated) 18.4%, CC(C)c1ccc2oc(-c3cccc(NC(=O)c4ccc5c(c4)OCCO5)c3)nc2c1 25%, Cc1ccc(-n2c(SCC(=O)Nc3cccc(F)c3)nc3c(oc4ccccc43)c2=O)cc1C -20.6%, COc1ccc(N2CCN(C(=O)NCc3noc4ccccc34)CC2)cc1 -5.84%, Cc1cc(C)cc(-n2ccn3c(CC(C)(C)CC(=O)O)nnc3c2=O)c1 -16.4%, Cc1ccc2oc3c(c(=O)c2c1)C(c1cccc(O)c1)N(Cc1ccccc1Cl)C3=O (configuration not stated) -34.5%, COc1cccc(NC(=O)C2CCCN2S(=O)(=O)c2ccc3c(c2)C(C)(C)C(=O)N3C)c1 (configuration not stated) -24.2%, O=C(Cc1cccs1)NC1CC(=O)N(c2ccc(Cl)cc2)C1 (configuration not stated) -5.86%, CCC1=C[C@@H]2CN(C1)Cc1c([nH]c3ccccc13)[C@@](C(=O)OC)(c1cc3c(cc1OC)N(C)[C@@H]1[C@@](O)(C(=O)OC)[C@H](OC(C)=O)[C@]4(CC)C=CCN5CC[C@]31[C@@H]54)C2 -32.5%, CC(C)Sc1ncc(Cl)c(C(=O)N(Cc2ccc(F)cc2)C2CCS(=O)(=O)C2)n1 (configuration not stated) 6.55%, Cc1ccc(-c2nn3c(-c4ccccc4)nnc3c3ccccc23)cc1 -12.4%, Cc1cccc(C(=O)OCc2cc(=O)n3nc(C4CCCCC4)sc3n2)c1 2.6%, COc1ccc(N2Cc3cccc(C(=O)Nc4ccc(C)c(C)c4)c3C2=O)cc1 -2.78%, O=C(NCCC1=CCCCC1)c1ccc2c(c1)N(Cc1ccccc1F)C(=O)c1ccccc1S2(=O)=O -7.47%, CCc1cccc(N2C(=O)CS(=O)(=O)C23C(=O)N(Cc2ccc(F)cc2)c2ccc(C)cc23)c1 (configuration not stated) -19.8%, CC1=C(C(=O)Nc2ccc(C)cc2)C(c2ccc(Cl)cc2)n2nnnc2N1 (configuration not stated) -9.36%, Cc1ccc(NC(=O)CN2C(=O)C(C)(C)c3ccccc32)cc1 -22.4%, CCOc1ccc(N2CC(NC(=O)Cc3ccccc3)CC2=O)cc1 (configuration not stated) -1.56%, CCOC(=O)c1c(NC(=O)COc2cccc(C(F)(F)F)c2)sc2c1CCCCC2 1.65% [at 11.5 µM, percent change from vehicle, -100% = no light], O=C(CSc1ncc(CO)n1Cc1ccccc1)Nc1ccc(C(F)(F)F)cc1 -45.2%, COc1cccc(C2c3c(-c4ccccc4O)n[nH]c3C(=O)N2CCc2ccc(OC)c(OC)c2)c1 (configuration not stated) -25.6%, CC(C)COc1ccc(C(=O)N2CCN(CCc3ccccn3)CC2)cc1 -7.51%, O=C(Nc1nnc(S(=O)(=O)N2CCc3ccccc32)s1)c1ccccc1 -24.8%, CCOc1nc(-c2ccc(C)cc2)ccc1-c1noc(-c2ccccc2F)n1 -12.7%, CCc1ccc(-c2nc(-c3cc4ccccc4oc3=O)sc2C)cc1 -20.6%, COc1cc(NC(=O)c2cnc3c(-c4ccc(F)cc4)c(C)nn3c2C)cc(OC)c1 -29.6%, Cc1ccc(Sc2c(C(=O)NCc3ccccc3C)[nH]c3ccccc23)cc1 6.96%, Nc1ncnc2c1c(-c1cccc(OCc3ccccc3)c1)cn2C1CC(CN2CCCC2)C1 (configuration not stated) -11.9%, Cc1ccc(-c2nc3ccc(Cl)cn3c2Nc2ccc3c(c2)OCCO3)s1 28.9%, CCN(CC)S(=O)(=O)c1ccc2oc(C(=O)Nc3ccc(Br)cc3F)c(C)c2c1 2.93%, COc1ccc(CNC(=O)CN2C(=O)CCCc3ccccc32)cc1 4.15%, COc1ccc(CCNC(=O)CCc2c(C)c3cc4c(C)c(C)oc4cc3oc2=O)cc1 0.0312%, COc1ccc(NC(=O)CC(C)n2nc(C)cc2C)cc1Cl (configuration not stated) -7.64%, CCOc1ccc(CCNC(=O)Cn2ncn3c(cc4ccccc43)c2=O)cc1OCC 0.473%, CCn1c(C(=O)Nc2cc(Cl)ccc2C)cc2sc(Cl)cc21 -15.9%, CCCOc1ccc(CN(C(=O)c2nc(SC(C)C)ncc2Cl)C2CCS(=O)(=O)C2)cc1 (configuration not stated) -10.8%, CCOc1ccc(/C=C/c2nc(C#N)c(Nc3ccc(OC)cc3)o2)cc1 1.33%, N#Cc1ccccc1Cn1c(=O)n(Cc2ccc(C(=O)NC3CCN(Cc4ccccc4)CC3)cc2)c(=O)c2ccccc21 -16.6%, Fc1ccc(-c2ccc(CNCCSc3nnnn3-c3ccccc3)o2)cc1Cl -0.691%, O=C(Nc1c(C(=O)Nc2cccc(F)c2)oc2ccccc12)c1cc2ccccc2o1 15.9%, COc1cc2[nH]c(=O)n(CCCCCC(=O)NCCc3ccccc3)c(=O)c2cc1OC -2.62%, CCOC(=O)c1cccc(NC(=O)C2CCCN(c3nnc(C)c4c(C)n(-c5ccccc5)nc34)C2)c1 (configuration not stated) -4.85%, O=C(Nc1cc(Cl)cc(Cl)c1)c1cc(S(=O)(=O)N2CCc3ccccc3C2)ccc1F -21.6%, COc1ccc(OC)c(C2C(C(=O)Nc3ccccc3OC)=C(C)Nc3c(C(=O)Nc4ccc(F)cc4)cnn32)c1 (configuration not stated) 0.135%, COc1ccc(C(=O)Nc2c(C(=O)c3ccccc3)oc3ccccc23)cc1 2.58%, Cn1c(=O)c(=O)n(C)c2cc(N3CCOCC3)c(NS(=O)(=O)c3ccc(F)c(Cl)c3)cc21 -10.2%, COc1ccc(NC(=O)c2cc3cc(C)ccc3n2C)cc1 7.75%, Cc1cccc(-n2ccnc2SCC(=O)Nc2nc3ccccc3s2)c1 4.22%, CCOC(=O)C(=O)Nc1c(C(=O)Nc2cccc(F)c2)oc2ccccc12 10.3%, COc1ccccc1N1CCN(c2nc3c(S(=O)(=O)c4ccc(C)c(C)c4)nnn3c3ccc(Cl)cc23)CC1 3.29%, CCOC(=O)c1ccc(NS(=O)(=O)c2cc(Br)cc3c2N(C(C)=O)C(C)C3)cc1 (configuration not stated) -51.9%, CCN(CCCNC(=O)c1nn(-c2ccc(OC)c(Cl)c2)c(=O)c2c1c1ccccc1n2C)c1cccc(C)c1 -17.1%, Cc1cccc(-c2nc(SCC(=O)NCc3ccco3)c3c(=O)n(C)c(=O)n(C)c3n2)c1 1.64%, Cc1ccc(Cn2c(CNS(=O)(=O)c3ccc(Cl)s3)nc3cccnc32)cc1 -5.71%, Cc1cc2[nH]c(=O)c(=O)[nH]c2cc1S(=O)(=O)N1CCN(c2cccc(C)c2C)CC1 -10.9%, CCc1c(C)sc(NC(=O)C2c3ccccc3Oc3ccccc32)c1C(=O)OC(C)C -10.7%
